Source: PubChem BioAssay AID504332 (National Center for Advancing Translational Sciences (NCATS), 2011)
Among all 350,000 compounds or so, about 31,000 (8.9%) were called active. The shares of active, inactive and inconclusive entries below differ from those in the screen. Calls follow the shape of the dose curve; as a rule, active = well fitted inhibition curve with a large enough effect; inconclusive = small, poorly fitted or top-dose-only effect; inactive = no such curve, though single readings can be large or run the other way. Potencies of inconclusive entries are doubtful fits and often do not repeat.

Target: Histone-lysine N-methyltransferase EHMT2 (Homo sapiens) (UniProt Q96KQ7)
UniProt Q96KQ7, sequence (Q96KQ7 whole entry, looked up): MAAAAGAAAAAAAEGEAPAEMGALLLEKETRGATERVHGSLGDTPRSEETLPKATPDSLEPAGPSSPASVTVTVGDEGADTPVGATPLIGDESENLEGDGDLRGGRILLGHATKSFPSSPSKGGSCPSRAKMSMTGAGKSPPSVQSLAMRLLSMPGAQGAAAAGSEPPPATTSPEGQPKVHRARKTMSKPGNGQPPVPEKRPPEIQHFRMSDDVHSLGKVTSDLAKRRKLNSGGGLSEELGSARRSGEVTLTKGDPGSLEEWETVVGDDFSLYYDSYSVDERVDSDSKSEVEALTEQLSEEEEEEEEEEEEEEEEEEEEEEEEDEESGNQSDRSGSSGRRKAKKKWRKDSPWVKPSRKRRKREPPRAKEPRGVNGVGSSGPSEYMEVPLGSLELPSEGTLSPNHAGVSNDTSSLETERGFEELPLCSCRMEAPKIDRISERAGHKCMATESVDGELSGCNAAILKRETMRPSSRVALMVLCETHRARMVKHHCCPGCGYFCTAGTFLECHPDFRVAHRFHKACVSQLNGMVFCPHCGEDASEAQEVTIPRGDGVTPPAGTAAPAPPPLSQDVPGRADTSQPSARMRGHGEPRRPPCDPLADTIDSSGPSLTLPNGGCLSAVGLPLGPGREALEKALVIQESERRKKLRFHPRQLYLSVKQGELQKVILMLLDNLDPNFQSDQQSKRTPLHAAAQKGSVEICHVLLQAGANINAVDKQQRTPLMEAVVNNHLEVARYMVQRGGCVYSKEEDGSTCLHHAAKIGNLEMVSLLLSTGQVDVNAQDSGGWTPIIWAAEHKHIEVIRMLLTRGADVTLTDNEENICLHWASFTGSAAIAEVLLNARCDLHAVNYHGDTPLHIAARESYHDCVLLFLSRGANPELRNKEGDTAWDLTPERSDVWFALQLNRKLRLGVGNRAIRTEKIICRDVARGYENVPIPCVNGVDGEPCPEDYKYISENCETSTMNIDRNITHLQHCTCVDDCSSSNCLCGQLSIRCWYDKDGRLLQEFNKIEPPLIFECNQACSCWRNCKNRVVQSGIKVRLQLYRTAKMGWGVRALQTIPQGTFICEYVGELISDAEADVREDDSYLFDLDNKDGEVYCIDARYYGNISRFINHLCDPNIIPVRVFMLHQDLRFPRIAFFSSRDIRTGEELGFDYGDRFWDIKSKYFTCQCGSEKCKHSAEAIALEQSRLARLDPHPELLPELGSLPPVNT
Assay: qHTS Assay for Inhibitors of Histone Lysine Methyltransferase G9a; also: nearly all actives have a fitted effect of over 75% in size
Settings: G9a H3K9 monomethylation, AlphaScreen, 2 h; activity, negative = inhibition: at 59 µM (top of the series) unless noted
Summary of the method: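 AlphaScreen detection with an anti-monomethyl H3K9 antibody quantified product after a 2 h room-temperature reaction containing 500 nM biotinylated H3K9 peptide, 20 µM SAM and 20 nM enzyme, which had been preincubated 15 min with compound.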
% is scaled to controls: 0 for no effect and ±100 for the full control effect; potency is read from the fitted curve at half-maximal effect; tags tell the direction and shape of the fitted curve.

SMILES	Potency	activity, negative = inhibition
S=c1[nH]nc(-c2cc(-c3ccccc3)n[nH]2)n1/N=C/c1ccc(Cl)cc1	inconclusive: 7.08 µM [inhibitor, full curve]	–
COc1ccc(OC)c(CCNC(=O)Cn2ccc3cc(S(=O)(=O)N4CCCCC4)ccc32)c1	–	inactive: -31.8%
CCOCCCNC(=O)CC1Oc2ccc(C)cc2NC1=O (centres undefined)	inconclusive: 39.8 µM [inhibitor, full curve]	–
Cc1ccc(S(=O)(=O)Nc2nc(-c3ccc(F)cc3)cs2)cc1	active: 50.1 µM	–
CNC(=S)N(CCc1ccc(OC)c(OC)c1)Cc1cc2c(C)cc(C)cc2[nH]c1=O	inconclusive: 2.82 µM [inhibitor, partial curve]	–
Cc1oc(-c2ccc(Cl)cc2)nc1CN1CCCC(C(=O)NC2CC2)C1 (centres undefined)	–	inactive: 9.87%
CCOC(=O)C1CCN(Cc2ccc3ccccc3c2)CC1	inconclusive: 28.2 µM [inhibitor, single point]	–
Cc1nc2ccc(NC(=O)COc3ccccc3C)cc2s1	active: 44.7 µM	–
CCOc1ccc(C(=O)NC(=S)Nc2ccc(N3CCCCC3)cc2)cc1[N+](=O)[O-]	active: 6.31 µM	–
CC1=CC2=NC(=O)/C(=C\c3cccn3CCOc3ccc(C)c(C)c3)C(=N)N2O1	inconclusive: 28.2 µM [inhibitor, single point]	–
CC(NC(=O)Cn1cc(Br)c([N+](=O)[O-])n1)c1ccccc1 (centres undefined)	–	inactive: 12.6% [at 102 µM]
O=C(/C=C/c1ccc(Cl)cc1)N1CCN(c2c(Cl)cccc2[N+](=O)[O-])CC1	inconclusive: 79.4 µM [inhibitor, partial curve, poor fit]	–
Clc1ccc(CONc2ncnc3nonc23)c(Cl)c1	–	inactive: 18%
COC(=O)c1cnc(SCc2ccc([N+](=O)[O-])cc2)n1C	inconclusive: 44.7 µM [inhibitor, partial curve, poor fit]	–
O=C(O)COc1ccccc1/C=N/NC(=O)c1ccc(F)cc1	active: 44.7 µM	–
Cc1ccc(C)c(CNC(=O)c2ccc3c(c2)nc2n3CCC(C)C2)c1 (centres undefined)	–	inactive: -11.6%
COc1ccc(NC(=O)C(Cc2ccccc2)NS(=O)(=O)c2ccc3c(c2)CCN3C(C)=O)cc1 (centres undefined)	inconclusive: 28.2 µM [inhibitor, partial curve, poor fit]	–
CCCCNC(=O)Cn1c2c(c(-c3ccccc3Cl)cc1=O)CCC2	inconclusive: 100 µM [inhibitor, single point]	–
O=C(COC(=O)Cc1cccc(F)c1)NC(=O)NC1CCCCC1	inconclusive: 89.1 µM [inhibitor, partial curve, poor fit]	–
COCCCN1C(=O)/C(=C\c2ccc3c(c2)OCO3)C(C(=O)OC)=C1C	–	inactive: -21.5% [at 102 µM]
COc1ccc(OCc2cccc(C(=O)Nn3cc([N+](=O)[O-])cn3)c2)cc1	inconclusive: 20 µM [inhibitor, partial curve]	–
O=C(Nc1ccc(F)cc1F)c1ccc2c(c1)CCN2S(=O)(=O)c1ccc(Cl)cc1	–	inactive: 0.151%

SMILES	Potency	activity, negative = inhibition
CCC(CC)N1CCN(Cc2nc3ccc([N+](=O)[O-])cc3c(=O)n2-c2ccccc2F)CC1	–	inactive: -21.1% [at 102 µM]
O=c1[nH]cnc2c1c(-c1ccccc1)cn2-c1ccc(Br)cc1	–	inactive: 4.55%
COc1ccc(-n2cc(C(=O)Nc3cc(F)ccc3F)c3ccccc3c2=O)cc1	inconclusive: 22.4 µM [inhibitor, single point]	–
COc1ccc(C(=O)NC(=S)Nc2ccc(N3CCOCC3)cc2)cc1Cl	active: 25.1 µM	–
CC(=O)c1c(C)[nH]c(C(=O)CSc2nnc(-c3ccco3)o2)c1C	inconclusive: 35.5 µM [inhibitor, partial curve, poor fit]	–
O=C(CCCl)N1CCN(c2nc(-c3ccccc3)cs2)CC1	inconclusive: 79.4 µM [inhibitor, single point]	–
Cc1ccc(-n2c3c(c(=O)[nH]c2=S)C(C(F)(F)F)(C(F)(F)F)NC(=O)N3)cc1	inconclusive: 89.1 µM [inhibitor, single point]	–
CCn1c(CNc2ccc(OC)cc2)nnc1SCC(=O)c1ccc(OC)cc1	inconclusive: 3.55 µM [inhibitor, single point]	–
CS(=O)(=O)N(CC(=O)Nc1cccc(F)c1)Cc1ccccc1	inconclusive: 89.1 µM [inhibitor, single point]	–
CCN(CC)S(=O)(=O)c1cc(C(=O)OCC(=O)c2ccc3c(c2)NC(=O)CO3)ccc1F	inconclusive: 89.1 µM [inhibitor, single point]	–
C/C(=N\NC(=S)NCc1ccccc1)c1ccco1	–	inconclusive: -65.6% [inhibitor]
CSc1sc(C(=O)O)c2c1C(=O)CCC2	inconclusive: 0.708 µM [inhibitor, partial curve, poor fit]	–
CC1=NN(c2ccccc2)C(=O)/C1=C\c1cc(C)n(C)c1C	inconclusive: 31.6 µM [inhibitor, partial curve]	–
O=C(COC(=O)c1ccc(S(=O)(=O)NCc2ccco2)cc1)Nc1ccccc1OC(F)F	active: 50.1 µM	–
Cc1ccc(C2=C/C(=C\c3cccnc3)C(=O)O2)cc1	inconclusive: 14.1 µM [inhibitor, partial curve, poor fit]	–
N#CCCn1cc(C(=O)O)c(-c2cccs2)n1	–	inactive: -6.72% [at 102 µM]
Cc1cccc(NC(=O)COc2coc(CN3CCN(c4ccccc4)CC3)cc2=O)c1	inconclusive: 89.1 µM [inhibitor, partial curve, poor fit]	–
CC(=O)c1cc(NC(=O)c2ccccc2)c(=O)oc1C	active: 31.6 µM	–
Cc1cc(N2CCN(C)CC2)nc2ccc(NC(=S)N3CCN(c4ccccn4)CC3)cc12	active: 50.1 µM	–
CCN(CCNC(=O)C1CCN(S(C)(=O)=O)CC1)c1ccccc1	inconclusive: 39.8 µM [inhibitor, partial curve, poor fit]	–
COc1cc(/C=C/C(=O)Nc2cccc(S(=O)(=O)NC3=NCCCCC3)c2)ccc1OCC#N	–	inactive: 24.1% [at 2.33 µM]
COc1cc(/C=C2\C(=N)N3N=CSC3=NC2=O)ccc1OS(=O)(=O)c1ccccc1	inconclusive: 44.7 µM [inhibitor, partial curve, poor fit]	–
